In the supplement of paper PMC8728848:
The list shows a part of the results.

Key:
Assay in all cases: glycan array binding signal (z-score within array); higher = stronger binding
Conditions in all cases: glycan notation: IUPAC condensed, linker removed
Fuc(a1-2)Gal = molecular target: Fuc(a1-2)Gal
Method in brief: (§1)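 Glycan array data came from 3228 arrays in the Consortium for Functional Glycomics database, and only arrays with an available protein sequence were kept. Glycan names were put into IUPAC-condensed notation, and columns mapping to the same glycan were averaged. The binding signal is a within-array Z-score, averaged across arrays of one protein sequence run at different concentrations or buffers and across linkers. A negative Z-score can be read as non-binding.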

Fuc(a1-2)Gal(b1-3)GalNAc = molecular target: Fuc(a1-2)Gal(b1-3)GalNAc
Method in brief: as §1

[1] = molecular target: Fuc(a1-2)Gal(b1-3)GalNAc(b1-3)Gal
Method in brief: as §1

[2] = molecular target: Fuc(a1-2)Gal(b1-3)GalNAc(b1-3)Gal(a1-4)Gal(b1-4)Glc
Method in brief: as §1

[3] = molecular target: Fuc(a1-2)Gal(b1-3)GalNAc(b1-4)[Neu5Ac(a2-3)]Gal(b1-4)Glc
Method in brief: as §1

Fuc(a1-2)Gal(b1-3)GlcNAc = molecular target: Fuc(a1-2)Gal(b1-3)GlcNAc
Method in brief: as §1

[4] = molecular target: Fuc(a1-2)Gal(b1-3)GlcNAc(b1-3)Gal(b1-4)Glc
Method in brief: as §1

[5] = molecular target: Fuc(a1-2)Gal(b1-3)[Fuc(a1-4)]GlcNAc
Method in brief: as §1

Fuc(a1-2)Gal(b1-4)Glc = molecular target: Fuc(a1-2)Gal(b1-4)Glc
Method in brief: as §1

Fuc(a1-2)Gal(b1-4)Glc6S = molecular target: Fuc(a1-2)Gal(b1-4)Glc6S
Method in brief: as §1

Fuc(a1-2)Gal(b1-4)GlcNAc = molecular target: Fuc(a1-2)Gal(b1-4)GlcNAc
Method in brief: as §1

[6] = molecular target: Fuc(a1-2)Gal(b1-4)GlcNAc(b1-3)Gal(b1-4)GlcNAc
Method in brief: as §1

[7] = molecular target: Fuc(a1-2)Gal(b1-4)GlcNAc(b1-3)Gal(b1-4)GlcNAc(b1-3)Gal(b1-4)GlcNAc
Method in brief: as §1

[8] = molecular target: Fuc(a1-2)Gal(b1-4)GlcNAc6S
Method in brief: as §1

[9] = molecular target: Fuc(a1-2)Gal(b1-4)[Fuc(a1-3)]GlcNAc
Method in brief: as §1

[10] = molecular target: Fuc(a1-2)Gal(b1-4)[Fuc(a1-3)]GlcNAc(b1-3)Gal(b1-4)[Fuc(a1-3)]GlcNAc
Method in brief: as §1

[11] = molecular target: Fuc(a1-2)Gal(b1-4)[Fuc(a1-3)]GlcNAc(b1-3)Gal(b1-4)[Fuc(a1-3)]GlcNAc(b1-3)Gal(b1-4)[Fuc(a1-3)]GlcNAc
Method in brief: as §1

Fuc(a1-2)Gal6S(b1-4)Glc = molecular target: Fuc(a1-2)Gal6S(b1-4)Glc
Method in brief: as §1

[12] = molecular target: Fuc(a1-2)Gal6S(b1-4)Glc6S
Method in brief: as §1

[13] = molecular target: Fuc(a1-2)Gal6S(b1-4)GlcNAc
Method in brief: as §1

Fuc(a1-2)[Gal(a1-3)]Gal = molecular target: Fuc(a1-2)[Gal(a1-3)]Gal
Method in brief: as §1

[14] = molecular target: Fuc(a1-2)[Gal(a1-3)]Gal(b1-3)GlcNAc
Method in brief: as §1

[15] = molecular target: Fuc(a1-2)[Gal(a1-3)]Gal(b1-4)Glc
Method in brief: as §1

[16] = molecular target: Fuc(a1-2)[Gal(a1-3)]Gal(b1-4)GlcNAc
Method in brief: as §1

[17] = molecular target: Fuc(a1-2)[Gal(a1-3)]Gal(b1-4)[Fuc(a1-3)]GlcNAc
Method in brief: as §1

[18] = molecular target: Fuc(a1-2)[Gal(a1-4)]Gal(b1-4)GlcNAc
Method in brief: as §1

[19] = molecular target: Fuc(a1-2)[GalNAc(a1-3)]Gal
Method in brief: as §1

[20] = molecular target: Fuc(a1-2)[GalNAc(a1-3)]Gal(b1-3)GlcNAc
Method in brief: as §1

[21] = molecular target: Fuc(a1-2)[GalNAc(a1-3)]Gal(b1-4)Glc
Method in brief: as §1

[22] = molecular target: Fuc(a1-2)[GalNAc(a1-3)]Gal(b1-4)GlcNAc
Method in brief: as §1

[23] = molecular target: Fuc(a1-2)[GalNAc(a1-3)]Gal(b1-4)[Fuc(a1-3)]GlcNAc
Method in brief: as §1

[24] = molecular target: Fuc(a1-2)[GalNAc(a1-4)]Gal(b1-4)GlcNAc
Method in brief: as §1

[25] = molecular target: Fuc(a1-2)[GalNAc(b1-3)]Gal
Method in brief: as §1

Fuc(a1-3)GlcNAc = molecular target: Fuc(a1-3)GlcNAc
Method in brief: as §1

[26] = molecular target: Fuc(a1-3)[Gal(b1-4)]Glc6S
Method in brief: as §1

[27] = molecular target: Fuc(a1-3)[Gal(b1-4)]GlcNAc
Method in brief: as §1

[28] = molecular target: Fuc(a1-3)[Gal(b1-4)]GlcNAc(b1-2)Man(a1-3)[Fuc(a1-3)[Gal(b1-4)]GlcNAc(b1-2)Man(a1-6)]Man(b1-4)GlcNAc(b1-4)GlcNAc
Method in brief: as §1

[29] = molecular target: Fuc(a1-3)[Gal(b1-4)]GlcNAc(b1-2)Man(a1-6)[Gal(b1-4)GlcNAc(b1-2)Man(a1-3)]Man(b1-4)GlcNAc(b1-4)GlcNAc
Method in brief: as §1

[30] = molecular target: Fuc(a1-3)[Gal(b1-4)]GlcNAc(b1-3)Gal(b1-3)[Fuc(a1-4)]GlcNAc
Method in brief: as §1

[31] = molecular target: Fuc(a1-3)[Gal(b1-4)]GlcNAc(b1-4)Gal(b1-4)[Fuc(a1-3)]GlcNAc
Method in brief: as §1

[32] = molecular target: Fuc(a1-3)[Gal(b1-4)]GlcNAc(b1-4)Gal(b1-4)[Fuc(a1-3)]GlcNAc(b1-4)Gal(b1-4)[Fuc(a1-3)]GlcNAc
Method in brief: as §1

[33] = molecular target: Fuc(a1-3)[Gal(b1-4)]GlcNAc6S
Method in brief: as §1

[34] = molecular target: Fuc(a1-3)[Gal3S(b1-4)]Glc6S
Method in brief: as §1

[35] = molecular target: Fuc(a1-3)[Gal3S(b1-4)]GlcNAc
Method in brief: as §1

[36] = molecular target: Fuc(a1-3)[Gal3S(b1-4)]GlcNAc6S
Method in brief: as §1

[37] = molecular target: Fuc(a1-3)[GalNAc(b1-4)]GlcNAc
Method in brief: as §1

Fuc(a1-4)GlcNAc = molecular target: Fuc(a1-4)GlcNAc
Method in brief: as §1

Fuc(b1-3)GlcNAc = molecular target: Fuc(b1-3)GlcNAc
Method in brief: as §1

Gal(a1-2)Gal = molecular target: Gal(a1-2)Gal
Method in brief: as §1

Gal(a1-3)Gal = molecular target: Gal(a1-3)Gal
Method in brief: as §1

Gal(a1-3)Gal(b1-3)GlcNAc = molecular target: Gal(a1-3)Gal(b1-3)GlcNAc
Method in brief: as §1

Gal(a1-3)Gal(b1-4)Glc = molecular target: Gal(a1-3)Gal(b1-4)Glc
Method in brief: as §1

Gal(a1-3)Gal(b1-4)GlcNAc = molecular target: Gal(a1-3)Gal(b1-4)GlcNAc
Method in brief: as §1

[38] = molecular target: Gal(a1-3)Gal(b1-4)[Fuc(a1-3)]GlcNAc
Method in brief: as §1

Gal(a1-3)GalNAc = molecular target: Gal(a1-3)GalNAc
Method in brief: as §1

[39] = molecular target: Gal(a1-3)[Gal(a1-4)]Gal(b1-4)GlcNAc
Method in brief: as §1

Gal(a1-4)Gal(b1-4)Glc = molecular target: Gal(a1-4)Gal(b1-4)Glc
Method in brief: as §1

Gal(a1-4)Gal(b1-4)GlcNAc = molecular target: Gal(a1-4)Gal(b1-4)GlcNAc
Method in brief: as §1

Gal(a1-4)GlcNAc = molecular target: Gal(a1-4)GlcNAc
Method in brief: as §1

Gal(a1-6)Glc = molecular target: Gal(a1-6)Glc
Method in brief: as §1

B1: R410P1E11 (Tachypleus tridentatus), TAL2_TACTR (protein)
chain: MEKGTPPTHDSDNWMGRAKEIGNGGWDQFQFLFFDPNGYLYAVSNDKLYKASPPQSDTDNWIARATEIGSGGWSGFKFLFFHPNGYLYAVRGQRFYKALPPVSNQD
glycan array binding signal (z-score) (Fuc(a1-2)Gal): 0.815 | glycan array binding signal (z-score) (Fuc(a1-2)Gal(b1-3)GalNAc): -0.061 | glycan array binding signal (z-score) [1]: 0.182 | glycan array binding signal (z-score) [2]: -0.563 | glycan array binding signal (z-score) [3]: -0.033 | glycan array binding signal (z-score) (Fuc(a1-2)Gal(b1-3)GlcNAc): 0.333 | glycan array binding signal (z-score) [4]: 0.087 | glycan array binding signal (z-score) [5]: -0.245 | glycan array binding signal (z-score) (Fuc(a1-2)Gal(b1-4)Glc): -0.285 | glycan array binding signal (z-score) (Fuc(a1-2)Gal(b1-4)Glc6S): -0.194 | glycan array binding signal (z-score) (Fuc(a1-2)Gal(b1-4)GlcNAc): -0.278 | glycan array binding signal (z-score) [6]: -0.164 | glycan array binding signal (z-score) [7]: -0.051 | glycan array binding signal (z-score) [8]: -0.199 | glycan array binding signal (z-score) [9]: -0.44 | glycan array binding signal (z-score) [10]: -0.171 | glycan array binding signal (z-score) [11]: -0.03 | glycan array binding signal (z-score) (Fuc(a1-2)Gal6S(b1-4)Glc): -0.503 | glycan array binding signal (z-score) [12]: 0.201 | glycan array binding signal (z-score) [13]: -0.187 | glycan array binding signal (z-score) (Fuc(a1-2)[Gal(a1-3)]Gal): -1.08 | glycan array binding signal (z-score) [14]: -0.345 | glycan array binding signal (z-score) [15]: -0.282 | glycan array binding signal (z-score) [16]: 0.385 | glycan array binding signal (z-score) [17]: 0.709 | glycan array binding signal (z-score) [18]: 0.356 | glycan array binding signal (z-score) [19]: 0.381 | glycan array binding signal (z-score) [20]: -0.286 | glycan array binding signal (z-score) [21]: 0.475 | glycan array binding signal (z-score) [22]: 2.74 | glycan array binding signal (z-score) [23]: 1.41 | glycan array binding signal (z-score) [24]: 5.65 | glycan array binding signal (z-score) [25]: 0.034 | glycan array binding signal (z-score) (Fuc(a1-3)GlcNAc): -0.483 | glycan array binding signal (z-score) [26]: -0.321 | glycan array binding signal (z-score) [27]: -0.121 | glycan array binding signal (z-score) [28]: -0.294 | glycan array binding signal (z-score) [29]: -0.563 | glycan array binding signal (z-score) [30]: -0.255 | glycan array binding signal (z-score) [31]: -0.276 | glycan array binding signal (z-score) [32]: -0.724 | glycan array binding signal (z-score) [33]: -0.234 | glycan array binding signal (z-score) [34]: -0.22 | glycan array binding signal (z-score) [35]: -0.106 | glycan array binding signal (z-score) [36]: -0.25 | glycan array binding signal (z-score) [37]: 1.75 | glycan array binding signal (z-score) (Fuc(a1-4)GlcNAc): -0.369 | glycan array binding signal (z-score) (Fuc(b1-3)GlcNAc): 0.095 | glycan array binding signal (z-score) (Gal(a1-2)Gal): -0.326 | glycan array binding signal (z-score) (Gal(a1-3)Gal): -0.448 | glycan array binding signal (z-score) (Gal(a1-3)Gal(b1-3)GlcNAc): -0.507 | glycan array binding signal (z-score) (Gal(a1-3)Gal(b1-4)Glc): 0.042 | glycan array binding signal (z-score) (Gal(a1-3)Gal(b1-4)GlcNAc): -0.112 | glycan array binding signal (z-score) [38]: 2.34 | glycan array binding signal (z-score) (Gal(a1-3)GalNAc): 0.051 | glycan array binding signal (z-score) [39]: -0.23 | glycan array binding signal (z-score) (Gal(a1-4)Gal(b1-4)Glc): -0.323 | glycan array binding signal (z-score) (Gal(a1-4)Gal(b1-4)GlcNAc): 0.059 | glycan array binding signal (z-score) (Gal(a1-4)GlcNAc): -0.199 | glycan array binding signal (z-score) (Gal(a1-6)Glc): 0.129
